Test results reported in US5883107A, “Arginine mimic derivatives as enzyme inhibitors” (Corvas International, Inc., priority 1995, dated 1999).

## CCCC(CCC)C(=O)N[C@@H](CC(=O)OC)C(=O)N1CCC[C@H]1C(=O)N[C@H](C=O)CC1CCCN(C(=N)N)C1 (single isomer, unassigned) [Isomer 11B, alpha-N-(propylpentanoyl)-aspartyl(beta-methyl ester)-prolyl-3-[3-piperidyl-(N-guanidino)]-L-alaninal]
Citrated human plasma
  prolongation of APTT: prolonged the APTT in a dose dependent manner
Citrated rat plasma
  prolongation of APTT: prolonged the APTT in a dose dependent manner
